Key:
[1] = target: biotin-labeled human IGF1 (human, UniProt P05019 in part, biotin-labeled); assay: capture ELISA, DVD-Ig captured by anti-human Fc, biotin-labeled IGF1; C-terminal VD
[2] = target: biotin-labeled human IGF2 (human, UniProt P01344 in part, biotin-labeled); assay: capture ELISA, DVD-Ig captured by anti-human Fc, biotin-labeled IGF2; C-terminal VD
[3] = target: T1, IGF1R (antigen of the capture ELISA table) (UniProt P08069 31-932, limits assumed); assay: antigen capture ELISA, IGF1R; C-terminal VD
T1 construct: No IGF1R capture ELISA method is described; also called IGFR

IGF-I = target: T2, IGF-I (UniProt P05019 in part); assay: Biacore SPR
T2 construct: Bought reagent; also called IGF1

IGF-2 = target: T3, IGF-2 (UniProt P01344 in part); assay: Biacore SPR
T3 construct: Bought reagent

[4] = target: T4, ErbB3 (ErbB3 ECD/FC Chimera-His tag, R&D 348-RB-050) (UniProt P21860 in part, limits assumed); assay: direct bind ELISA, coated antigen; C-terminal VD of DVD-Ig
T4 construct: extracellular domain; Bought antigen coated on the ELISA plate

PlGF = target: T5, PlGF (UniProt P49763-2 21-149, limits assumed); assay: direct bind ELISA, C-terminal VD
T5 construct: bought antigen coated on the ELISA plate; also called Placental GF
T5 sequence (looked up): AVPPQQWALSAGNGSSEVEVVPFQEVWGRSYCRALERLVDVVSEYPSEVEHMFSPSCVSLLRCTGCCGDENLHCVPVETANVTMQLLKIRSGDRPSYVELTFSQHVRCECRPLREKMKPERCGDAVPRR

B1: DVD029 (bispecific antibody, human IgG1, lambda)
heavy: [omitted - about 120 residues]ASTKGPQVQLVQSGAEVKKPGASVKVSCKASGYTFTSYDINWVRQATGQGLEWMGWMNPNSGNTGYAQKFQGRVTMTRNTSISTAYMELSSLRSEDTAVYYCARDPYYYYYGMDVWGQGTTVTVSS[omitted - human IgG1 constant region]
light: [omitted - about 100 residues]RTVAAPQSVLTQPPSVSAAPGQKVTISCSGSSSNIENNHVSWYQQLPGTAPKLLIYDNNKRPSGIPDRFSGSKSGTSATLGITGLQTGDEADYYCETWDTSLSAGRVFGGGTKLTVLGQPKAAPSVTLFPPSSEELQANKATLVCLISDFYPGAVTVAWKADSSPVKAGVETTTPSKQSNNKYAASSYLSLTPEQWKSHRSYSCQVTHEGSTVEKTVAPTECS
notes: also called HER-2 / IGF1,2 DVD-Ig; DVD029H
[1]
  EC50: 229 nM
[2]
  EC50: 206 nM

B2: DVD031 (bispecific antibody, human IgG1, kappa)
heavy: [omitted - about 120 residues]ASTKGPEVQLLESGGGLVQPGGSLRLSCTASGFTFSSYAMNWVRQAPGKGLEWVSAISGSGGTTFYADSVKGRFTISRDNSRTTLYLQMNSLRAEDTAVYYCAKDLGWSDSYYYYYGMDVWGQGTTVTVSS[omitted - human IgG1 constant region]
light: [omitted - about 100 residues]RTVAAPDIQMTQFPSSLSASVGDRVTITCRASQGIRNDLGWYQQKPGKAPKRLIYAASRLHRGVPSRFSGSGSGTEFTLTISSLQPEDFATYYCLQHNSYPCSFGQGTKLEIKRTVAAPSVFIFPPSDEQLKSGTASVVCLLNNFYPREAKVQWKVDNALQSGNSQESVTEQDSKDSTYSLSSTLTLSKADYEKHKVYACEVTHQGLSSPVTKSFNRGEC
notes: DVD-Ig; also called HER-2 / IGF1R DVD-Ig; DVD031H
[3]
  EC50: 171 nM

B3: DVD029 (bispecific antibody, human IgG1, lambda)
heavy: [omitted - about 120 residues]ASTKGPQVQLVQSGAEVKKPGASVKVSCKASGYTFTSYDINWVRQATGQGLEWMGWMNPNSGNTGYAQKFQGRVTMTRNTSISTAYMELSSLRSEDTAVYYCARDPYYYYYGMDVWGQGTTVTVSS[omitted - human IgG1 constant region]
light: [omitted - about 100 residues]RTVAAPQSVLTQPPSVSAAPGQKVTISCSGSSSNIENNHVSWYQQLPGTAPKLLIYDNNKRPSGIPDRFSGSKSGTSATLGITGLQTGDEADYYCETWDTSLSAGRVFGGGTKLTVLGQPKAAPSVTLFPPSSEELQANKATLVCLISDFYPGAVTVAWKADSSPVKAGVETTTPSKQSNNKYAASSYLSLTPEQWKSHRSYSCQVTHEGSTVEKTVAPTECS
notes: also called DVD029H; DVD029L
IGF-I
  Kd: 6.36 nM
  koff: 0.000423 s⁻¹
  kon: 66500 M⁻¹ s⁻¹
IGF-2
  Kd: 0.302 nM
  koff: 3.15e-05 s⁻¹
  kon: 104000 M⁻¹ s⁻¹

B4: DVD412 (bispecific antibody, human IgG1, lambda)
heavy: [omitted - about 120 residues]ASTKGPEVQLLESGGGLVQPGGSLRLSCAASGFTFSHYVMAWVRQAPGKGLEWVSSISSSGGWTLYADSVKGRFTISRDNSKNTLYLQMNSLRAEDTAVYYCTRGLKMATIFDYWGQGTLVTVSS[omitted - human IgG1 constant region]
light: [omitted - about 100 residues]RTVAAPQSALTQPASVSGSPGQSITISCTGTSSDVGSYNVVSWYQQHPGKAPKLIIYEVSQRPSGVSNRFSGSKSGNTASLTISGLQTEDEADYYCCSYAGSSIFVIFGGGTKVTVLGQPKAAPSVTLFPPSSEELQANKATLVCLISDFYPGAVTVAWKADSSPVKAGVETTTPSKQSNNKYAASSYLSLTPEQWKSHRSYSCQVTHEGSTVEKTVAPTECS
notes: DVD-Ig; HC linker short, LC linker short; also called DVD412H; DVD412L
[4]
  EC50: 206 nM

B5: DVD416 (bispecific antibody, human IgG1, kappa, lambda)
heavy: [omitted - about 120 residues]ASTKGPSVFPLAPEVQLLESGGGLVQPGGSLRLSCAASGFTFSHYVMAWVRQAPGKGLEWVSSISSSGGWTLYADSVKGRFTISRDNSKNTLYLQMNSLRAEDTAVYYCTRGLKMATIFDYWGQGTLVTVSS[omitted - human IgG1 constant region]
light: [omitted - about 100 residues]RTVAAPSVFIFPPQSALTQPASVSGSPGQSITISCTGTSSDVGSYNVVSWYQQHPGKAPKLIIYEVSQRPSGVSNRFSGSKSGNTASLTISGLQTEDEADYYCCSYAGSSIFVIFGGGTKVTVLGQPKAAPSVTLFPPSSEELQANKATLVCLISDFYPGAVTVAWKADSSPVKAGVETTTPSKQSNNKYAASSYLSLTPEQWKSHRSYSCQVTHEGSTVEKTVAPTECS
notes: DVD-Ig; HC linker long, LC linker long; also called DVD416H; DVD416L
[4]
  EC50: 64.4 nM

B6: DVD420 (bispecific antibody, human IgG1, lambda)
heavy: [omitted - about 120 residues]ASTKGPSVFPLAPEVQLLESGGGLVQPGGSLRLSCAASGFTFSHYVMAWVRQAPGKGLEWVSSISSSGGWTLYADSVKGRFTISRDNSKNTLYLQMNSLRAEDTAVYYCTRGLKMATIFDYWGQGTLVTVSS[omitted - human IgG1 constant region]
light: [omitted - about 100 residues]RTVAAPQSALTQPASVSGSPGQSITISCTGTSSDVGSYNVVSWYQQHPGKAPKLIIYEVSQRPSGVSNRFSGSKSGNTASLTISGLQTEDEADYYCCSYAGSSIFVIFGGGTKVTVLGQPKAAPSVTLFPPSSEELQANKATLVCLISDFYPGAVTVAWKADSSPVKAGVETTTPSKQSNNKYAASSYLSLTPEQWKSHRSYSCQVTHEGSTVEKTVAPTECS
notes: DVD-Ig; HC linker long, LC linker short; also called DVD420H; DVD420L
[4]
  EC50: 144 nM

B7: DVD424 (bispecific antibody, human IgG1, kappa, lambda)
heavy: [omitted - about 120 residues]ASTKGPEVQLLESGGGLVQPGGSLRLSCAASGFTFSHYVMAWVRQAPGKGLEWVSSISSSGGWTLYADSVKGRFTISRDNSKNTLYLQMNSLRAEDTAVYYCTRGLKMATIFDYWGQGTLVTVSS[omitted - human IgG1 constant region]
light: [omitted - about 100 residues]RTVAAPSVFIFPPQSALTQPASVSGSPGQSITISCTGTSSDVGSYNVVSWYQQHPGKAPKLIIYEVSQRPSGVSNRFSGSKSGNTASLTISGLQTEDEADYYCCSYAGSSIFVIFGGGTKVTVLGQPKAAPSVTLFPPSSEELQANKATLVCLISDFYPGAVTVAWKADSSPVKAGVETTTPSKQSNNKYAASSYLSLTPEQWKSHRSYSCQVTHEGSTVEKTVAPTECS
notes: DVD-Ig; HC linker short, LC linker long; also called DVD424H; DVD424L
[4]
  EC50: 40.7 nM

B8: DVD548 (bispecific antibody, human IgG1, kappa)
heavy: [omitted - about 120 residues]ASTKGPQVQLKQSGPGLVQPSQSLSITCTVSGFSLTTYGIHWVRQSPGKGLEWLGVMWSGGDTDYDAAFISRLSISKDNSKSQVFFKMNSLQANDTGIYYCARYRFYGMDYWGQGTSVTVSS[omitted - human IgG1 constant region]
light: [omitted - about 100 residues]RTVAAPAIQMTQSSSSFSVSLGDRVTITCKASEDIYNRFAWYQQKPGNAPRLLISGAASLEAGVPSRFSGSGSGQDYTLSITSLQTEDVATYYCQQYWSTPWTFGGGTKLEIKRTVAAPSVFIFPPSDEQLKSGTASVVCLLNNFYPREAKVQWKVDNALQSGNSQESVTEQDSKDSTYSLSSTLTLSKADYEKHKVYACEVTHQGLSSPVTKSFNRGEC
notes: HC linker short, LC linker short; also called DVD-Ig DVD548
PlGF
  EC50: 7.42 nM

B9: DVD556 (bispecific antibody, human IgG1, kappa)
heavy: [omitted - about 120 residues]ASTKGPSVFPLAPQVQLKQSGPGLVQPSQSLSITCTVSGFSLTTYGIHWVRQSPGKGLEWLGVMWSGGDTDYDAAFISRLSISKDNSKSQVFFKMNSLQANDTGIYYCARYRFYGMDYWGQGTSVTVSS[omitted - human IgG1 constant region]
light: [omitted - about 100 residues]RTVAAPSVFIFPPAIQMTQSSSSFSVSLGDRVTITCKASEDIYNRFAWYQQKPGNAPRLLISGAASLEAGVPSRFSGSGSGQDYTLSITSLQTEDVATYYCQQYWSTPWTFGGGTKLEIKRTVAAPSVFIFPPSDEQLKSGTASVVCLLNNFYPREAKVQWKVDNALQSGNSQESVTEQDSKDSTYSLSSTLTLSKADYEKHKVYACEVTHQGLSSPVTKSFNRGEC
notes: HC linker long, LC linker long; also called DVD-Ig DVD556
PlGF
  EC50: 0.24 nM

B10: DVD564 (bispecific antibody, human IgG1, kappa)
heavy: [omitted - about 120 residues]ASTKGPSVFPLAPQVQLKQSGPGLVQPSQSLSITCTVSGFSLTTYGIHWVRQSPGKGLEWLGVMWSGGDTDYDAAFISRLSISKDNSKSQVFFKMNSLQANDTGIYYCARYRFYGMDYWGQGTSVTVSS[omitted - human IgG1 constant region]
light: [omitted - about 100 residues]RTVAAPAIQMTQSSSSFSVSLGDRVTITCKASEDIYNRFAWYQQKPGNAPRLLISGAASLEAGVPSRFSGSGSGQDYTLSITSLQTEDVATYYCQQYWSTPWTFGGGTKLEIKRTVAAPSVFIFPPSDEQLKSGTASVVCLLNNFYPREAKVQWKVDNALQSGNSQESVTEQDSKDSTYSLSSTLTLSKADYEKHKVYACEVTHQGLSSPVTKSFNRGEC
notes: HC linker long, LC linker short; also called DVD-Ig DVD564
PlGF
  EC50: 1.37 nM

B11: DVD572 (bispecific antibody, human IgG1, kappa)
heavy: [omitted - about 120 residues]ASTKGPQVQLKQSGPGLVQPSQSLSITCTVSGFSLTTYGIHWVRQSPGKGLEWLGVMWSGGDTDYDAAFISRLSISKDNSKSQVFFKMNSLQANDTGIYYCARYRFYGMDYWGQGTSVTVSS[omitted - human IgG1 constant region]
light: [omitted - about 100 residues]RTVAAPSVFIFPPAIQMTQSSSSFSVSLGDRVTITCKASEDIYNRFAWYQQKPGNAPRLLISGAASLEAGVPSRFSGSGSGQDYTLSITSLQTEDVATYYCQQYWSTPWTFGGGTKLEIKRTVAAPSVFIFPPSDEQLKSGTASVVCLLNNFYPREAKVQWKVDNALQSGNSQESVTEQDSKDSTYSLSSTLTLSKADYEKHKVYACEVTHQGLSSPVTKSFNRGEC
notes: HC linker short, LC linker long; also called DVD-Ig DVD572
PlGF
  EC50: 2.34 nM

— US20100260668A1 (published 2010)
